{"source": "patent US20240287457A1", "about": "“COMPOSITIONS AND CELL CULTURE MEDIA FOR INCREASING NEUTROPHIL LIFESPAN” (THE CHILDREN'S MEDICAL CENTER CORPORATION, priority 2021, published 2024)", "tested_on": "murine neutrophils", "assay": "In vitro neutrophil death / survival of cultured murine neutrophils", "type": "cell-based, mouse", "settings": "12.5 mM"}
{"smiles": "CC(=O)N[C@@H](CS)C(=O)O", "note": "[N-acetyl cysteine]", "values": [{"measurement": "Neutrophil survival after 3 days - normalized to fresh neutrophils (100)", "value": "<10"}]}
